Results on 83 variants are retold here after the RNAGym collection of RNA variant scans (doi:10.1073/pnas.2313332121).

B1: TPR 5TU (parent)
chain: GGAUCUUCUCGAUCUAACAAAAAAGACAAAUCUGCCACAAAGCUUGAGAGCAUCUUCGGAUGCAGAGGCGGCAGCCUUCGGUGGCGCGAUAGCGCCAACGUUCUCAACUAUGACACGCAAAACGCGUGCUCCGUUGAAUGGAGUUUAUCAUG

Variants at the background level are over-represented here.

This data set covers variants of B1. Description: polymerase ribozyme fitness, log enrichment relative to wild type (log ratio); higher = more active; in vitro selection for triplet polymerase activity. The method in brief:
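In triplicate, a single round of in vitro selection was run on each mutant library, PCR-built and transcribed, covering one subunit of a heterodimeric triplet polymerase ribozyme. Frozen incubation at −7 °C followed annealing with a biotinylated primer, partner subunit and triplets, and extended constructs were then gel-excised, streptavidin-captured and taken through RT-PCR. Fitness is the logarithm of genotype enrichment over wild-type enrichment, from inverse-variance-weighted replicate averages of Illumina-sequenced inputs and outputs. […] only genotypes with ≥10 input reads and ≥1 read per output were kept.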
In the case of C87G A98G, the “polymerase ribozyme fitness (log ratio)” value is no more than -4.2.
Take A97U G141C G143U: the “polymerase ribozyme fitness (log ratio)” value is no more than -4.2.
Regarding C96U C149U, the “polymerase ribozyme fitness (log ratio)” value was -0.874.
Turning to G92A C125G G141U A147U, the “polymerase ribozyme fitness (log ratio)” value was no more than -4.2.
As to G92C U101G G117C, the “polymerase ribozyme fitness (log ratio)” value was -1.52.
For C103G U145G, the “polymerase ribozyme fitness (log ratio)” value was -1.87.
On to C93U C99U, for which the “polymerase ribozyme fitness (log ratio)” value was -2.8.
For the variant C103G C132A, the “polymerase ribozyme fitness (log ratio)” value was no more than -4.2.
Take G88A C95G: the “polymerase ribozyme fitness (log ratio)” value is no more than -4.2.
For the variant G88A C95A, the “polymerase ribozyme fitness (log ratio)” value is no more than -4.2.
Regarding C87A U139C G152U, the “polymerase ribozyme fitness (log ratio)” value was no more than -4.2.
Take U90A G92A C103G G117U A138G: the “polymerase ribozyme fitness (log ratio)” value is no more than -4.2.
For G88A G133C G141U the value was no more than -4.2; for C95U C105G A107C C149G, no more than -4.2; for G88U A91G, no more than -4.2.
Take C96U A97U U134G A138C: the “polymerase ribozyme fitness (log ratio)” value is no more than -4.2.
Take C108A G140C: the “polymerase ribozyme fitness (log ratio)” value was no more than -4.2.
Take C93U U144G: the “polymerase ribozyme fitness (log ratio)” value was -0.253.
On to G92C C114G C123U G152A, for which the “polymerase ribozyme fitness (log ratio)” value is no more than -4.2.
With U102G C116A, the “polymerase ribozyme fitness (log ratio)” value is -2.07.
G100A C129G: the “polymerase ribozyme fitness (log ratio)” value was no more than -4.2.
C108U A147C: the “polymerase ribozyme fitness (log ratio)” value was -3.44.
Regarding U90G G100A C116U, the “polymerase ribozyme fitness (log ratio)” value was no more than -4.2.
For the variant C95U C105G, the “polymerase ribozyme fitness (log ratio)” value was -0.337.
As to C93U A97U C116A G133A, the “polymerase ribozyme fitness (log ratio)” value is no more than -4.2.
For the variant A91G U148A, the “polymerase ribozyme fitness (log ratio)” value is no more than -4.2.
As for A91U C95G, the “polymerase ribozyme fitness (log ratio)” value was no more than -4.2.
Turning to G88A G152A, the “polymerase ribozyme fitness (log ratio)” value is no more than -4.2.
Consider C93U A120C G133A, for which the “polymerase ribozyme fitness (log ratio)” value was no more than -4.2.
For C87U G88U A119U the value was no more than -4.2; for A89U G143U, -2.38.
Turning to C87U A113G G117A A138C, the “polymerase ribozyme fitness (log ratio)” value is no more than -4.2.
On to A89C A97U U101G A110G U134G G141A, for which the “polymerase ribozyme fitness (log ratio)” value was no more than -4.2.
In the case of A91C G152U, the “polymerase ribozyme fitness (log ratio)” value was no more than -4.2.
In the case of C95U C96U G124U G136C, the “polymerase ribozyme fitness (log ratio)” value is -3.61.
C93A C99G C123U G136C: the “polymerase ribozyme fitness (log ratio)” value is no more than -4.2.
With C105U A142C the figure was -0.229; with C87G C114G C131U, no more than -4.2.
As to A91G G126A G141A, the “polymerase ribozyme fitness (log ratio)” value is -3.67.
Turning to C87G C123A, the “polymerase ribozyme fitness (log ratio)” value is no more than -4.2.
For the variant C93U C132U C149G, the “polymerase ribozyme fitness (log ratio)” value is no more than -4.2.
With A89G G92U the figure was -2.48; with A89G G94A G100C, no more than -4.2; with A110G G140U A147G C149A, no more than -4.2.
With G92U C96U A97U A115U A121U the figure was -2.82.
Regarding G94A C105G C116A G141C, the “polymerase ribozyme fitness (log ratio)” value is no more than -4.2.
Regarding C87A G140C, the “polymerase ribozyme fitness (log ratio)” value was no more than -4.2.
Regarding G100C C131G, the “polymerase ribozyme fitness (log ratio)” value is no more than -4.2.
For A98U A138G the value was -3.32; for A98U G100C C105U A110G, no more than -4.2.
Consider G92U C93A G136C, for which the “polymerase ribozyme fitness (log ratio)” value was no more than -4.2.
With C87U U90C U134A A138U G143A the figure was no more than -4.2; with C93A U104G, -2.89; with A98G A138C, no more than -4.2.
With C87G U90C A98G C149A, the “polymerase ribozyme fitness (log ratio)” value is no more than -4.2.
Regarding C96A G112C, the “polymerase ribozyme fitness (log ratio)” value was -3.31.
As for C87U A120G A121C A147U U148C, the “polymerase ribozyme fitness (log ratio)” value is -2.38.
With C87G A89G the figure was no more than -4.2; with C87A C116U, no more than -4.2.
In the case of C103A A120G C131U A138U, the “polymerase ribozyme fitness (log ratio)” value was -3.71.
For G94A G141U the value was 0.898.
Consider C108U A115G, for which the “polymerase ribozyme fitness (log ratio)” value was -3.94.
Consider C87G A98U U144G, for which the “polymerase ribozyme fitness (log ratio)” value is no more than -4.2.
C103G C118U A119U G143C: the “polymerase ribozyme fitness (log ratio)” value is no more than -4.2.
In the case of C99G C123U G143C U145G, the “polymerase ribozyme fitness (log ratio)” value is no more than -4.2.
On to U109G G133C, for which the “polymerase ribozyme fitness (log ratio)” value was -2.
For the variant A91G C114G C125G, the “polymerase ribozyme fitness (log ratio)” value is no more than -4.2.
For A91U G136U U144C, the “polymerase ribozyme fitness (log ratio)” value was no more than -4.2.
For G88A A91G A119G, the “polymerase ribozyme fitness (log ratio)” value is no more than -4.2.
In the case of A91G, the “polymerase ribozyme fitness (log ratio)” value is -2.77.
For A91U, the “polymerase ribozyme fitness (log ratio)” value was no more than -4.2.
A91C: the “polymerase ribozyme fitness (log ratio)” value was no more than -4.2.
In the case of C103G U144A, the “polymerase ribozyme fitness (log ratio)” value was -2.15.
For C93A A110G, the “polymerase ribozyme fitness (log ratio)” value was no more than -4.2.
In the case of C93G U151A, the “polymerase ribozyme fitness (log ratio)” value is no more than -4.2.
As to A91U A98U U135G, the “polymerase ribozyme fitness (log ratio)” value is no more than -4.2.
For G94C U102A C149G, the “polymerase ribozyme fitness (log ratio)” value is no more than -4.2.
Regarding A89G U146G C149G, the “polymerase ribozyme fitness (log ratio)” value is -4.1.
As to G88U C105U U134G, the “polymerase ribozyme fitness (log ratio)” value was no more than -4.2.
Turning to A91U A121U, the “polymerase ribozyme fitness (log ratio)” value was no more than -4.2.
Take A97C: the “polymerase ribozyme fitness (log ratio)” value is 0.773.
Take A89U C95G A122G: the “polymerase ribozyme fitness (log ratio)” value was -1.39.
For U102C A106U the value was no more than -4.2.
